The term stoichiometry N denotes a count of units in the complex or per binding partner.

For this assay, the target named is T1, IscS (E. coli desulfurase), wild type (E. coli), P0A6B7.
T1 chain: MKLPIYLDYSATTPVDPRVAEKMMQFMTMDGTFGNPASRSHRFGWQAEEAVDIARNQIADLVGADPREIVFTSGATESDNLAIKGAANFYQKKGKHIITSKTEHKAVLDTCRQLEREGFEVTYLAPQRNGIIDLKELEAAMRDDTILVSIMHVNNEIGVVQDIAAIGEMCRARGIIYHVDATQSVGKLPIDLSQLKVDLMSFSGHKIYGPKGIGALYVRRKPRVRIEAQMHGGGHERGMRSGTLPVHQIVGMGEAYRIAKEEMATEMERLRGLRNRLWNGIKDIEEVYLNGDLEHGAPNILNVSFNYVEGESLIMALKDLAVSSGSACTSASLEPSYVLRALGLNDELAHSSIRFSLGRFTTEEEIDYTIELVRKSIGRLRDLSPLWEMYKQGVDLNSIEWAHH
As to the kind of experiment: SAXS; solutions of 2.5-5.0 mg/ml at 10 °C; IscS alone and holo-Fdx·IscS complex. The conditions noted are these: remark: other sources report otherwise.

B1: IscS (E. coli desulfurase), wild type, P0A6B7 1-404 (enzyme)
chain: T1 chain
B1 gave a stoichiometry N of 2.
